{"source": "PubChem BioAssay AID2451", "about": "(National Center for Advancing Translational Sciences (NCATS), 2010)", "note": "Where “and” joins values, the source holds several entries; their conditions need not be identical. Identical values can stand only once. Hit rate of the full screen: of about 290,000 compounds, about 2,100 (0.72%) were called active. The inconclusive results got no clear call from the source; some entries with a clear call stand among them for comparison. The call rests on the fitted dose curve; in most records, active means well fitted inhibition curve with a large enough effect; inconclusive means small, poorly fitted or top-dose-only effect, or effect the other way; inactive means flat fitted curve, though single readings scatter. Potencies beside an inconclusive call are fits to weak or partial responses and may not hold up. A structure can be active in one record and inactive in another. Potency means the concentration at half of the fitted maximal effect; tags describe the fitted curve by direction and shape.", "data": [{"biological_target": "Fructose-bisphosphate aldolase (Giardia intestinalis (strain ATCC 50803 / WB clone C6)) (UniProt A8B2U2)", "sequence (A8B2U2 whole entry, looked up)": "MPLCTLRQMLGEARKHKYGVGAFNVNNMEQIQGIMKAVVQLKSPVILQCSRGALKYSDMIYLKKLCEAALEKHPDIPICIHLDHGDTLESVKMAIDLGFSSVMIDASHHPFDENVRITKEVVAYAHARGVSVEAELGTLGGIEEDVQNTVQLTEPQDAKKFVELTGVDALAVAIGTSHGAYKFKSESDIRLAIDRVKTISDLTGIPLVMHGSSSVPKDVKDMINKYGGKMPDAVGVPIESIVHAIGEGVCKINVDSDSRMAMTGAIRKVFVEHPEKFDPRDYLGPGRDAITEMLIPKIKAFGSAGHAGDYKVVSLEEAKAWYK", "assay": "qHTS Assay for Inhibitors of Fructose-1,6-bisphosphate Aldolase from Giardia Lamblia; further: nearly all actives have a fitted effect of over 55% in size", "details": "purified Giardia FBPA; series mostly up to 59.6 µM", "method_in_brief": "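Giardia FBPA (40 nM reagent) was preincubated 10 min at RT with compound (up to 57.5 uM final), then substrate plus GAPDH/TPI/NAD/arsenate coupling system with diaphorase/resazurin was added; resorufin fluorescence (525/598 nm) was read after 20 min.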", "values": [{"smiles": "COc1ccc(Oc2ncc3nc(-c4cccc(C#N)c4)c(=O)n(C)c3n2)cc1", "Potency": "inactive"}, {"smiles": "CCCSc1nnc(N2C(=O)C(O)=C(C(=O)c3ccco3)C2c2ccccc2F)s1", "note": "(configuration not stated)", "Potency": "inconclusive: 10 µM [inhibitor, partial curve]"}, {"smiles": "O=C(Nc1nnc(-c2cccs2)o1)c1ccc(S(=O)(=O)N2CCOCC2)cc1", "Potency": "active: 14.1 µM"}, {"smiles": "Cc1[nH]n(-c2ccccc2)c(=O)c1N=Nc1c(Cl)cccc1Cl", "Potency": "inconclusive: 14.1 µM [inhibitor, partial curve]"}, {"smiles": "Cc1cc(=O)oc(C)c1C(=O)N1CCN(C(c2ccccc2)c2ccccc2)CC1", "Potency": "inconclusive: 44.6 µM [inhibitor, single point]"}, {"smiles": "Cc1cc(/C=N/Nc2ccc([N+](=O)[O-])cn2)c(C)n1-c1cccc(C(=O)O)c1", "Potency": "inconclusive: 15.8 µM [inhibitor, partial curve]"}, {"smiles": "C/C(=N\\Nc1nccnc1Cl)c1ccc(O)c(C)c1", "Potency": "inconclusive: 8.91 µM [inhibitor, partial curve]"}, {"smiles": "C=CCNC(=S)Nc1ccc2nc(C)c(C)nc2c1", "Potency": "inconclusive: 19.9 µM [inhibitor, partial curve]"}, {"smiles": "CCCN(Cc1cc2ccc(C)cc2[nH]c1=O)C(=O)c1ccccn1", "Potency": "inconclusive: 15.8 µM [inhibitor, partial curve]"}, {"smiles": "COc1ccc(C(=O)NC(=S)N2CCN(C)CC2)cc1Br", "Potency": "inconclusive: 15.8 µM [inhibitor, single point]"}, {"smiles": "O=[N+]([O-])c1ccc(SCCc2ccncc2)cc1", "Potency": "inconclusive: 25.1 µM [inhibitor, single point]"}, {"smiles": "COc1cc(OC)c(OC)cc1CN1CCN(C(=O)COc2ccc3ccccc3c2)CC1", "Potency": "inconclusive: 28.2 µM [inhibitor, partial curve]"}, {"smiles": "CCC(=O)Nc1cccc(C2=NOC3(C2)C[C@H](C(N)=O)N(C(=O)c2ccc(Cl)cc2)C3)c1", "note": "(some centres not stated)", "Potency": "inactive"}, {"smiles": "O=C(CSc1cccc[n+]1[O-])Nc1ccccc1Oc1ccccc1", "Potency": "active: 6.29 µM"}, {"smiles": "COc1ccc(-c2csc(/C(C#N)=C(\\O)CSc3nccn3C)n2)cc1OC", "Potency": "inconclusive: 7.06 µM [inhibitor, partial curve]"}, {"smiles": "CCn1c(/N=C/c2ccccc2NS(=O)(=O)c2ccc(C)cc2)nc2ccccc21", "Potency": "inconclusive: 14.1 µM [inhibitor, single point]"}, {"smiles": "N#C[C@@H]1[C@@H]2C(=O)N(c3ccc4c(c3)OCCO4)C(=O)[C@@H]2C2c3ccccc3C=CN21", "note": "(some centres not stated)", "Potency": "inconclusive: 9.98 µM [inhibitor, partial curve]"}, {"smiles": "OCC#CCSc1nnc(-c2ccc(Br)cc2)o1", "Potency": "inactive"}, {"smiles": "Cc1ccnc(Nc2nc(-c3c(C)nc4sccn34)cs2)c1", "Potency": "inconclusive: 9.98 µM [inhibitor, partial curve]"}, {"smiles": "CC1CC(C)CN(CCCn2c(=S)[nH]c3ccccc3c2=O)C1", "note": "(configuration not stated)", "Potency": "inactive"}, {"smiles": "COc1cc(CN2CCN(Cc3ccc(SC)cc3)CC2)cc(OC)c1O", "Potency": "inconclusive: 15.8 µM [inhibitor, partial curve]"}, {"smiles": "Cc1ccc(/C(=N/Nc2ncnc3ccccc23)C(=O)O)cc1", "Potency": "active: 14.1 µM"}, {"smiles": "Cc1ccc(C2(c3ccc(C)cc3)CC2C(=O)Nc2ccc([N+](=O)[O-])cc2O)cc1", "note": "(configuration not stated)", "Potency": "inconclusive: 15.8 µM [inhibitor, partial curve]"}, {"smiles": "Cc1ccc(S(=O)(=O)n2cnc(C)c2)cc1", "Potency": "inconclusive: 35.5 µM [inhibitor, single point]"}, {"smiles": "Cc1cc(NC(=O)c2ccccc2)ncc1NC(=O)c1ccco1", "Potency": "inconclusive: 44.7 µM [inhibitor, partial curve]"}, {"smiles": "Cc1cc(NC(=S)Nc2ccc(C)c(Cl)c2)n[nH]1", "Potency": "inconclusive: 15.8 µM [inhibitor, partial curve]"}, {"smiles": "COc1cccc(C(=O)Nc2nnc(-c3ccc(Cl)cc3)o2)c1", "Potency": "inconclusive: 44.6 µM [inhibitor, single point]"}, {"smiles": "COc1ccc(Cc2nc3ccc(S(N)(=O)=O)cc3[nH]2)cc1OC", "Potency": "inconclusive: 14.1 µM [inhibitor, partial curve]"}, {"smiles": "COc1ccccc1Nc1nnc(SCc2cc(=O)n3ccsc3n2)s1", "Potency": "inconclusive: 15.8 µM [inhibitor, single point]"}, {"smiles": "c1ccc(-c2nc(-c3ccc(-c4ccon4)s3)no2)cc1", "Potency": "inactive"}, {"smiles": "O=C1C=Cc2ccccc2C1=O", "Potency": "active: 3.54 µM"}, {"smiles": "CC1(C)CC(=O)C(Sc2nnc(-c3ccc(O)cc3)n2CC2CCCO2)C(=O)C1", "note": "(configuration not stated)", "Potency": "inactive"}, {"smiles": "O=C(N/N=C/c1cccnc1)c1ccccc1Br", "Potency": "inactive"}, {"smiles": "CCOC(=O)c1cc2c(=O)n3cccc(C)c3nc2n(Cc2ccco2)c1=NC(=O)c1cccnc1", "Potency": "inconclusive: 14.1 µM [inhibitor, partial curve]"}, {"smiles": "O=C(Nc1nnc(C2=COCCO2)o1)c1ccc(S(=O)(=O)N2CCOCC2)cc1", "Potency": "active: 19.9 µM"}, {"smiles": "CC(CN1CCCC1)OC(=O)c1ccc(F)cc1", "note": "(configuration not stated)", "Potency": "inconclusive: 31.6 µM [inhibitor, single point]"}, {"smiles": "CCCc1nc(N)sc1C(=O)OCC", "Potency": "inactive"}, {"smiles": "Cc1ccccc1-n1ncc2c([N+](=O)[O-])cc([N+](=O)[O-])cc21", "Potency": "inactive"}, {"smiles": "Cc1cccc(N2CCN(C(=O)c3cc(S(=O)(=O)N4CCCC4)cn3C)CC2)c1C", "Potency": "inactive"}, {"smiles": "CCOC(=O)C(CC(C)C)CP(=O)(O)CNC(=O)OCc1ccccc1", "note": "(configuration not stated)", "Potency": "inactive"}, {"smiles": "Cn1c(=O)c2c(nc(SCc3nn[nH]n3)n2Cc2ccccc2F)n(C)c1=O", "Potency": "inconclusive: 7.06 µM [inhibitor, full curve]"}, {"smiles": "COc1ccccc1-c1ccc(NC2CCCCC2)nn1", "Potency": "inactive"}, {"smiles": "Cc1cc(N=NC(=O)c2ccccc2O)c2ccccc2c1O", "Potency": "inconclusive: 15.8 µM [inhibitor, single point]"}, {"smiles": "COc1cccc(CN2CCN(C(=O)c3cccc(OC)c3)CC2)c1", "Potency": "inconclusive: 31.6 µM [inhibitor, partial curve]"}, {"smiles": "COc1ccc(C2C3(C#N)C(N)=NC(OC)(OC)C23C#N)cc1", "note": "(configuration not stated)", "Potency": "inconclusive: 17.7 µM [inhibitor, single point]"}, {"smiles": "O=C1C(Cl)=C(Nc2ccc3cn[nH]c3c2)C(=O)c2ccccc21", "Potency": "inconclusive: 1.12 µM [inhibitor, full curve]"}, {"smiles": "Cc1nnc(N/N=C/c2ccccc2F)n1N", "Potency": "inconclusive: 20 µM [inhibitor, partial curve]"}, {"smiles": "COc1ccc(-c2ccc(-c3nc4c(c(=O)[nH]c(=O)n4Cc4ccccc4)n3C)o2)c([N+](=O)[O-])c1", "Potency": "inconclusive: 2.81 µM [inhibitor, full curve]"}, {"smiles": "COc1cc2c(cc1O)-c1c(O)c(OC)cc3c1[C@H](C2)N(C)CC3", "Potency": "inconclusive: 9.98 µM [inhibitor, full curve, poor fit]"}, {"smiles": "Cc1ccc(C)c(N2CCN(C3CCCC(C)C3)CC2)c1", "note": "(configuration not stated)", "Potency": "inconclusive: 35.5 µM [inhibitor, single point]"}, {"smiles": "O=C(Nc1cccc(C(F)(F)F)c1)c1ccc2nc(-c3ccco3)c(-c3ccco3)nc2c1", "Potency": "inconclusive: 7.92 µM [inhibitor, partial curve]"}, {"smiles": "COc1ccc(OC)c(Nc2nc(NCCO)c3ccccc3n2)c1", "Potency": "inconclusive: 14.1 µM [inhibitor, partial curve]"}, {"smiles": "Cc1nc2cc3ccccc3cc2c(=O)[nH]1", "Potency": "inconclusive: 19.9 µM [inhibitor, partial curve]"}, {"smiles": "O=C(N/C(=C/c1ccco1)C(=O)N1CCOCC1)c1cccs1", "Potency": "inactive"}, {"smiles": "CCn1nc(C(=O)Nc2ccc(S(=O)(=O)Nc3nccs3)cc2)c2ccccc2c1=O", "Potency": "inconclusive: 31.5 µM [activator, single point]"}, {"smiles": "CC(=O)C1=C(c2ccccc2)NC(=O)NC1c1ccccc1OCC#N", "note": "(configuration not stated)", "Potency": "inconclusive: 31.5 µM [activator, single point]"}, {"smiles": "Cc1c(NC(=O)c2cccs2)cccc1[N+](=O)[O-]", "Potency": "inactive"}, {"smiles": "COC(=O)c1ccc(NC(=O)CN(c2ccc(OC)cc2)S(C)(=O)=O)cc1", "Potency": "inactive"}, {"smiles": "C=CCOc1ccc(/C=C2\\SC(=S)N(NS(=O)(=O)c3ccc(C)cc3)C2=O)cc1", "Potency": "inconclusive: 31.6 µM [inhibitor, single point]"}, {"smiles": "COc1cccc(NC(=O)COc2ccc(Br)c(C)c2)c1", "Potency": "inactive"}, {"smiles": "CC1CCCC(C)N1C(=O)CSc1nccc(=O)[nH]1", "note": "(configuration not stated)", "Potency": "inconclusive: 22.4 µM [inhibitor, partial curve]"}, {"smiles": "CCCCSc1nc(C(=O)O)cc(=O)[nH]1", "Potency": "inconclusive: 17.7 µM [inhibitor, partial curve]"}, {"smiles": "O=S(=O)(NCCc1csc(-c2cccnc2)n1)c1ccc(Cl)s1", "Potency": "inactive"}, {"smiles": "CCC(=O)Nc1ccc2nc3c(=O)[nH]c(=S)[nH]c3nc2c1", "Potency": "inconclusive: 25.1 µM [inhibitor, partial curve]"}, {"smiles": "CCCC(=O)Nc1ccc(Cl)c(NC(=S)NC(=O)c2ccco2)c1", "Potency": "inconclusive: 15.8 µM [inhibitor, single point]"}, {"smiles": "CCCOC(=O)c1c(NC(=O)CCC(=O)O)sc2c1CCCCC2", "Potency": "inconclusive: 17.7 µM [activator, single point]"}, {"smiles": "CC1=C(/C=C/c2ccccc2)CCN(C)C1", "Potency": "inactive"}, {"smiles": "O=C(O)CN(CCN(CC(=O)O)CC(=O)O)CCN(CC(=O)O)CC(=O)O", "Potency": "active: 3.97 µM and active: 7.92 µM"}, {"smiles": "Cc1cc(/C=C2\\C(=O)NC(=O)N(c3ccc(F)cc3)C2=O)c(C)n1-c1cccc(C(=O)O)c1", "Potency": "inactive"}, {"smiles": "O=C(NCc1ccccc1)c1ccc(S(=O)(=O)C(F)F)cc1", "Potency": "inactive"}, {"smiles": "S=C1NCCOCCOCCOCCNC(=S)NCCOCCOCCOCCN1", "Potency": "inconclusive: 1.41 µM [inhibitor, full curve, poor fit]"}, {"smiles": "COC(=O)c1c(C(=O)OC)c2cc(C(=O)c3ccccc3)ccn2c1Cl", "Potency": "inconclusive: 15.8 µM [inhibitor, single point]"}]}]}
